Test results: the RNAGym collection of RNA variant scans (doi:10.7554/elife.90254)
The source gives no read counts; variants with many changes may rest on few reads.

B1: LINE1-full (parent)
chain: UACGUAGGUGGUUUUCCCCUGAUAGUGCUAAGGGGGCCUGGAAGUUUGGACUGGGCAGAGCUCAACACAGCGUGGCAAAGUGGCUGUGGCUAGACUGCCUCUCUGGAUUCCUCGUCACUCAGCAGGGCAUCUCUGAGAGAAAUGCC

Variants of: B1
Experiment: self-cleavage, relative activity (ratio to wild type); higher = more cleavage; in vitro, sequencing; the parent is a self-cleaving ribozyme

Variant | self-cleavage
UACCUAGGUGGUUUUCCCCUGAUAGUGCUAAGGGGGCCUGGAAGUUUGGACCGGGCUGAGCUCAACACAGCGUGGCAAAGUGGCUGUGGCUAGACUGCCUCUCUGGAUUCCUCGUCACUCAGCAGGGCAUCUCUGAGAGAAAUGCC [G4C U52C A57U] | 0.06
UACUUAGGUGGUUUUCCCCAGGUAGUGCUAAGGGGGCCUGGAAGUUUGGACUGGGCAGAGCCCAACACAGCGUGGCAAAGUGGCUGUGGCUAGACUGCCUCUCUGGAUUCCUCGUCACUCAGCAGGGCAUCACUGAGAGCAAUGCC [G4U U20A A22G U62C U132A A140C] | 0
UACGACGGUGGUUUUCCCCUGAUAGUGCUAAGGGGGCCUGGAAGUUUGGACUGGGCAGAGCUCAACACAGCGUGGCAAAGUGGCUGUGGCUAGACUGCCUCUCUGGAUUCCUCGUCACUCGGCAGGGCAUCUCUGAGAGAGACGCC [U5A A6C A121G A141G U143C] | 1.31
UACUUAGGUGGUUUUCCCCUGAUAGUGCUAAGGGGGCCUGGAAGUUUGGACUGGGCAGAGCUCAACACAGCGCGGCAGAGUGGCUGUGGCUAGACUGCCUCUCUGGAUUCCUCGUCACUCAGCAGGGCAUCUCUGAGAGAAAUGCC [G4U U73C A78G] | 1.1
UACGAAGGUGGUUUUCCCCUGAUAGUGCUAAGGGGGACUGGAAGUUUGGACUGGGCAGAGCUCAACACAGCGUGGCAAAGUGGCUGUGGCUAGACUGCCUCUCUGGAUUCCUCGUCACUCAGCAGGGCAUCUCUGAGAGAAACGCC [U5A C37A U143C] | 0.53
UACCUAGGUGGUUUUCCCCUGAUAGUGCUAAGGGGGCCUGGAAGUUCGGACUGGGCAGAUCUCAACACAGCGUGGCAAAGCGGCUGUGGCUAGACUGCCUCUCUGGAUUCCUCGUCACUCAGCAGGGCAUCUCUGAGAGAAAUGCC [G4C U47C G60U U81C] | 0.22
UACGAAGGUGGUUUUCCCCUGAUAGUGUUAAGGGGGCCUGGAAGUUUGGACUGGGCAGAGCUCAACACAGCGUGGCUAAGUGGCUGUGGCUAGACUGCCUCUCUGGAUUCCUCGUCAAUCAGCAGGGCACCUCUGAGAGAAAUGCC [U5A C28U A77U C118A U130C] | 1.5
UACGAAGGUGGUUUUCCCCUGAUAGUGCUAAGGGGGCCUGGAAGUUUGGACUGGGCAGGGCUCGACUCAGCGUGGCAAAGUGGCUGUGGCUAGACUGCCUCUCUGGAUUCCUCGUCACCCAGCAGGGCAUCUCUGAGAGAAAUGCC [U5A A59G A64G A67U U119C] | 0
UACGAAGGUGGUUUUCUCCUGAUAGUGCUAAGGGGGCCUGGAAGUUUGGACUGGGCAGAGCUCAACACAGCGUGGCAUAGUGGCUGUGGCUAGACUGCCUCACUGGAUUCCACGUCACUCGGCAGGGCAUCUCUGAGAGAAAUGCC [U5A C17U A78U U102A U112A A121G] | 2.04
UACUUAGGUGGCUUUCCCCUGAUAGUGCUAAGGGGGCCUGGAAGUUUGGACUGGGCAGAGCUCAACACAGCGUGGCAAGGUGGCUGUGGCUAGACUGCCUCUCUGGAUUCCUCGUCACCCAGCAGGGCAUCUCUGAGAGGAAUGCC [G4U U12C A79G U119C A140G] | 2.63
UACAUAGGUGGUUUUCCCCUGAUAGUGCUAAGGGGGCCUGGAAGUUUGGACCGGGCAGAGCUCAACACAGCGUGGCAAAGUGGCUGUGGCUAGACUGCCUCUCUGGAUUCCUCGUCACUCAGCAGGGCAUCUCUGAGAGAAACGCC [G4A U52C U143C] | 0.42
UACGAAGGUGGUUUUCCCCUGAUAGUGCUAAGGGGGCCUGGAAGUUUGGACUGGGCAGAGCUCAACACAGCGUAGCAAGGUGGCUGUGGCUAGACUGCCUCUCUGGAUUCCUCGUCACUCAGCAGGGCAUCUCUGAGAGAAAUGCC [U5A G74A A79G] | 0.69
UACUUAGGUGGUUUUCCCCUGAUAGCGCUAAGGGGGCCUGGAAGUUUGGACUGGGCAGAGCUCAACACAGCGUGGCAAAGUGGCUGUGGCUAGACUGCCUCUCUGGGUUCCUCGUCACUCAGCAGGGCAUCUCUGAGAGAAAUGCC [G4U U26C A107G] | 1.84
UACUUAGGUGGUUUUCCCCUGAUAGUGCUAAUGGGGCCUGGAAGUAUGGACUGGGCAGAGCUCAACACAGCGUGGCAAAGUGGCUGGGGCUAGACUGCCUCUCUGGAUUCCUCGUCACUCAGCAGGGCAUCUCUGAGAGAAAUGCC [G4U G32U U46A U87G] | 0.32
UACCUAGGUGGUCUUCCCCUGAUAGUGCCAAGGGGGCCUGGGAGUUUGGACUGGGCAGAGCUCAACACAGCGUGGCAAAGUGGCUGUGGCUAGACUGCCUCUCUGGAUUCCUCGUCACUCAGCAGGGCAUCUCUGAGAGAAAUGCC [G4C U13C U29C A42G] | 0.37
UACAUAGGUGGUUUUCCCCUGAUAGUGCUAAGGGGGCCUGGAAGUUUGGACUGGGCAGAGCUCAACACAGCGUGGCAAAGUGGCUGAGGCUAGACUGCCUCUCUGGAUUCCUCGCCACUCAGUAGGGCAUCUCUGAGAGAAAUGCC [G4A U87A U115C C123U] | 0.07
UACGAAGGUGGUUUUCCCCUGAUAGUGCUAAGGGGGCCUGGAAGUUUGGACUGGGCAGAGCUCAACACAGCGUGGCAAAGUGGCUGUGGCUAGUCUGCCUCUCUGGAUUCCUCGUCACUCAGCAGGGCAUCUCUGGGAGAAAUGCC [U5A A94U A136G] | 0.31
UACUUAGGUGGUUAUCCCCUGAUAGUGCUAAGGGGGCCUGGAAGUUUGGGCUGUGCAGAGCUCAACACAGCGUGGCAAAGUGGCUGUGGCUAGACUGCCUCUCUGGAUUCCUCGUCACUCAGCAGGGCAUCUCUGAGAGAAAUGCC [G4U U14A A50G G54U] | 0.2
UACGAAGGUGGUUUUCCCCUGAUAGUGCUAAGGGGGCCUGGAAGUUUGGACUGGGCAGAGCUCAACACUGCGUGGCAAAGUGGCUGUGGCUAGACUGCCUCUCUGGGUUCCUCGUCACUCAGCAGGGCAUCUCUGAGAGAAAUGCC [U5A A69U A107G] | 0.21
UACGAAGGUGGUUUUCCCCUGAUAGUGCUAAGGGGGCCUGGAAGUUUGGACUGGGCAAAGCUCAACACAGCGUGGCAAAGUGGCUGUGGCUAGUCUGCCUCUCUGGAUUCCUCGUCACUCAGCAGGGCAUCUCUGAGAGAAAUGCC [U5A G58A A94U] | 0.08

Variant | self-cleavage
UACUUAGGUGGUCUUCCCCUGAUAGUGCUAAGGGGGCCUGGAAGUUUGGACUGGGCGGAGCUCAACACAGCGUGGCAAAGUGGCUGUGGCUAGACAGCCUCUCUGGGUUCCUCGUCACUCAGCAGGGCAUCUCUGAGAGAAAUGCC [G4U U13C A57G U96A A107G] | 0
UACGAAGGUGGUUUUCCCCUGAUAGUGCUAAGGGGGCCUGGAAGUUUGGAAUGGGCAGAGCUCAACACAGCGUGGCGAAGUGGCUGUGGCUAGACUGCCUCUCUGGAUUCCUCGUCACUCAGCAGGGCAUCUCUGAGAGAAAUGCC [U5A C51A A77G] | 1.79
UACGAAUGUGGUAUUCCCCUGAUAGUGCUAAGGGGGCCUGGAAGUUUGGACUGGGCAGAGCUCAACACAGCGUGGCAAAGUGGCUGUGGCUAGACUGCCUCUCUGGAUUCCUCGUCACUCAGCAGGGCAUCUCUGAGAGAAAUGCC [U5A G7U U13A] | 0.77
UACGAAGGUGGUUUUCCCCUGUUAGUGCUAAGGGGGCCUGGAAGUUUGGACUGGGCAGAGCUCAACACAGCGUGGCAAAGUGGCUGUGGCUAGACUGCCUCUCUGGAAUCCUCGUCACUCAGCAGGGCAUCUCUGAGAGAAAUGCC [U5A A22U U108A] | 0.2
UACGAAGGUGGUUUUCCACUGAUAGGGCUAAGGGGGCCUGGAAGUUUGGACUGGGCAGAGCUCAACACGGCGUGGCAAAGUGGCUGUGGCUAGACUGCCUCUCUGGAUUCCUCGUCACUCAGCAGGGCAUCUCUGAGAGAAAUGCC [U5A C18A U26G A69G] | 1.16
UACGAAGGUGGUUUUCCCCUGAUAGUGCUAAAGGGGCCUGGAAGUUUGGACUGGGCAGAGCUCAACACAGCGUGGCAAAGUGGCUGUGGCCAGACUGCCUCUCUGGAUUCCUCGUCACUCAGCAGGGCAACUCUGAGAGAAAUGCC [U5A G32A U91C U130A] | 0.45
UACGAAGGUGGUUUUCCCCUGAUAGUGCUAAGGGGGCCUGGAAGUUUGGACUGGGCAGAGCUCAACACAGCGUGGCAAAGUGGCUGUGGCUAGACUGCCUAUCUGGAUACCUCGUCACUCAGCAGGGCAUCUCUGAGAGGAAUGCC [U5A C101A U109A A140G] | 1.07
UACAUAGGUGGUUUUCCCCUGAUAGUGCUAAGGGGGCCUGGAAGUCUGGACUGGGCAGAGCCCAACACAGCGUGGCAAAGUGGCUGUGGCUAGACUGCCUCUCUGGAUUCCUCGUCACUCAGCUGGGCAUCUCUGAGAGAAAUGCC [G4A U46C U62C A124U] | 0.06
UACAUAGGUGGUUUUCCCCUGAUAGUGCUAAGGGGGCCUGGAAGUUUGGACUGGGCAGAGCUCAACACAGCGUGGCAAAGCGGCUGUGGCUAGACUGCCUCUCUGGAUUCCUCGUCACUCAGCAGGGCAUCUUUGAGAGAAAUGCC [G4A U81C C133U] | 1.01
UACGAAGGUGGUUUUCCCCUGAUAGUGCUAAGGGGGCCUGGAAGUUUGGACUGGGCGGAGCUCAACACAGCGUGGCAAAGUGGCUGUGGCUAGACUGCCUCUCUGGAUUCCUCGUCACUCAGCAGGGCUUCUCUGAGAGAAAUGCC [U5A A57G A129U] | 0.7
UACCUAGGUGGUUUUCCCCUGAUAGGGCUAAGGGGGCCUGGAAGCUUGGACUGGGCAGAGCUCAACACAGCGUGGCAAAGUGGCUGUGGCUAGACUGCCUCUCUGGAUUCCUCGUCACUCAGCAGGGCGUCUCUGAGAGAAAUGCC [G4C U26G U45C A129G] | 1.38
UACGAAUGUGGUUUUCCCCUGAUAGUGCUAAGGGGGCCUGGAAGUUUGGACUGGGCAGAGCUCAACACAGCGUGGCAAAGUGGCCGUGGCUAGACUGCCUCUCUGGAUUCCUCGUCACUCAGCAGGGCAUCUCUGAGAGGAAUGCC [U5A G7U U85C A140G] | 0.16
UACCUAGGUAGUUUUCCCCUGAUAGUGCUAAGGGGGCCUGGAAGUUUGGACUGGGCAGAGCUCAACACAGCGUGACAAAGCGGCUGUGGCUAGACUGCCUCUCUGGAUUCCUCGUCACUCAGCAGGGCAUCUCUGAGAGAAAUGCC [G4C G10A G75A U81C] | 0.77
UACGAAGGUGGUUUUCCCCUGAUAGUGCUAAGGGGGGCUGGAAGUUCGGACUGGGCAGAGCUCAACACAGCGUGGCAAAGUGGCUGUGGCUAGACUGCCUCUCUGGAUUCCUCGUCACCCAGCAGGGCAUCUCUGAGAGAAAUGCC [U5A C37G U47C U119C] | 0.5
UACAUAGGUGGUUUUCCCCUGAUAGUGCUAAGGGGGCCUGGAAGUUCGGAUUGGGCAGAGCUCAACACAGCGUGGCAAAGUGGCUGUGGCUAGGCUGCCUCUCUGGAUUCCUCGCCACUCAGCAGGGCAUCUCUGAGAGAAAUGCC [G4A U47C C51U A94G U115C] | 0.71
UACGAGGGUGGUUUUCCCCUGAUAGUGCUGAGGGGGCCUGGAAGUUCGGACUGGGCAGAGCUCAACACAGCGUGGCAAAGUGGCUGUGGCUAGACUGCCUCUCUGGAUUCCUCGUCACUCAGCAGGGCAUCUCUGAGAGAAAUGCC [U5A A6G A30G U47C] | 1.43
UACGAAGGUGGUUUUCCCCUAAUAGUGCUAAGGGGGCCUGGAAGUUUGGACUGGGCAGAGCUCAACACAGCGUGGCAAAGUGGCUGUGGCUAGACUGCCUCUCUGGGUUCCUCGUCACUCAGCAGGGCAUCUCUGAGAGAAAUGCC [U5A G21A A107G] | 0.71
UACGAAGGUGGUUUUCCCCUGAUAGUGCUAAGGGGGCCUGGAGGCUUGGACUGGGCAGAGCUCAACACAGCGUGGCAAAGUGGCUGUGGCUAGACUGCCUCUCUGGAUUCCUCGUCACUCAGCAGGGCAUCUCUGAGAGGAAUGCC [U5A A43G U45C A140G] | 0.38
UACGAAGGUGGUUUUCCCCUGAUAGUGCUAAGGGGGCCUGGAAGUUUGGGUUGGGCAGAGCUCGACACAGCGUGGCAAAGUGGCUGUGGCUAGACUGCCUCUCUGGAUUCCUCGUCACUCAGCAGGGCAUCUCUGAGAGAAAUGCC [U5A A50G C51U A64G] | 0
